Test results taken from ChEMBL document CHEMBL4888484, “Replenishing the malaria drug discovery pipeline: Screening and hit evaluation of the MMV Hit Generation Library 1 (HGL1) against asexual blood stage Plasmodium falciparum ,using a nano luciferase reporter read-out” (2022).
About 540 (0.36%) of roughly 150,000 compounds showed an effect of 50% or more. The list shows a part of the results.

The compounds below were run on Plasmodium falciparum (assay: Primary screen in NF54 nanoGlo assay, in single point, at 2uM, 72h; a lower Z score goes with more inhibition). Conditions: timepoint 72 hour.
Assay type: functional, Erythrocyte
With CN(Cc1ccc(Cl)s1)C(=O)Cn1cnc(C#N)c1C#N the “% Inhibition” value was -6% and the Z score was 0.5. For O=C(c1ccc(Cl)s1)N1CCN(C[C@H](O)C2CC2)CC1, the “% Inhibition” value was -15% and the Z score was 2.21. O=C(c1ccccc1)[C@@H](C(=O)N1CCC(Cc2ccccc2)CC1)n1ccccc1=O was tested, and the “% Inhibition” value was -9% and the Z score was 1.34. In the case of CCc1ccc(CN2CCN(CC3CC3)[C@@H]3CS(=O)(=O)C[C@@H]32)cc1, the “% Inhibition” value is reported as -10% and the Z score is reported as 1.94. CCOc1cccc([C@@H]2CC(c3ccc(C)cc3)=NC3(CCN(C(C)=O)CC3)N2)c1O was tested, and the “% Inhibition” value was -34% and the Z score was 5.75. In the case of CN1CCC(N(C)C(=O)C2CC(=O)N(Cc3cc(C(F)(F)F)cc(C(F)(F)F)c3)C2)C1 (centres undefined), the “% Inhibition” value is reported as -11% and the Z score is reported as 1.08. With Cn1nncc1S(=O)(=O)N1CCN(C(=O)c2ccc(Cl)cc2)CC1 the “% Inhibition” value was 13% and the Z score was -1.36. In the case of CCc1noc(CN(CC)C(=O)Nc2c(C)c(CC)nn2-c2ccccc2)n1, the “% Inhibition” value is reported as -10% and the Z score is reported as 1.6. In the case of O=C(c1ccccc1)N(CCc1nc(-c2ccccc2)no1)Cc1ccco1, the “% Inhibition” value is reported as -10% and the Z score is reported as 1.57. For COC[C@H](CC(C)C)OC(=O)c1cccc(-n2cccn2)n1, the “% Inhibition” value was 2% and the Z score was -0.31. With CCCn1cc(NS(=O)(=O)c2cccc3nn(C)nc23)ccc1=O the “% Inhibition” value was -7% and the Z score was 1.18. COc1cnc(NC(=O)[C@@]2(C)CCCN(C(=O)c3ccccc3)C2)cn1 was tested, and the “% Inhibition” value was -5% and the Z score was 0.57. With Cc1nn(CCCNC2CCCCC2)c(C)c1C the “% Inhibition” value was -17% and the Z score was 1.87. Cc1noc([C@H](C)NS(=O)(=O)N(C)C(C)C)n1 was tested, and the “% Inhibition” value was 4% and the Z score was -0.47. With C[C@](NC(=O)CCc1ccsc1)(C(N)=O)c1cccc(Cl)c1 the “% Inhibition” value was -7% and the Z score was 1.21. In the case of COc1ccccc1N1CCN([C@H]2[C@@H]3OC[C@@H](O3)[C@@H](NCc3ccco3)[C@@H]2O)CC1, the “% Inhibition” value is reported as -11% and the Z score is reported as 1.46. In the case of Cn1cccc1C(=O)N1CCC[C@H](n2cc(-c3nc(-c4ccccc4)no3)nn2)C1, the “% Inhibition” value is reported as -11% and the Z score is reported as 1.2. In the case of COc1cc(C(=O)N2CCc3[nH]c(-c4ccc(F)cc4F)nc3C2)ccn1, the “% Inhibition” value is reported as -1% and the Z score is reported as 0.13. CCOC(=O)C1CCC(Nc2cccc(-c3nnco3)c2)CC1C (centres undefined) was tested, and the “% Inhibition” value was -13% and the Z score was 1.26. For Cc1ccc(-c2cc(C(=O)NC[C@H]3CCCO3)c3ccccc3n2)s1, the “% Inhibition” value was 13% and the Z score was -1.89. With O=C1C2CC2C(=O)N1c1ccc2snnc2c1 (centres undefined) the “% Inhibition” value was -7% and the Z score was 0.98. With CNc1cc(C)nc(N2C[C@H](C)[C@@](O)(C3CC3)C2)n1 the “% Inhibition” value was 7% and the Z score was -1.4. With Cc1cnn(C(C)C)c1Nc1nc2c(s1)c(C)nn2C the “% Inhibition” value was -5% and the Z score was 0.89. For CN(CCCCN1CCOCC1)C(=O)c1cn[nH]c1, the “% Inhibition” value was -5% and the Z score was 0.99. For COc1ccc(C)cc1NC(=O)CCc1nc2c(C)nn(-c3ccccc3)c2n(C)c1=O, the “% Inhibition” value was -14% and the Z score was 2.59. For CC1CN(Cc2ccccc2)CC(C)C1NC(=O)c1ccncc1F (centres undefined), the “% Inhibition” value was 37% and the Z score was -5.28. For NC(=O)c1cc[nH]c1[C@H]1CCCN(C(=O)c2ccc(F)c(Cl)c2)C1, the “% Inhibition” value was 5% and the Z score was -0.59. For CC(C(=O)NCc1cccs1)N1CCCCC1Cn1cncn1 (centres undefined), the “% Inhibition” value was -10% and the Z score was 1.13. For CC(c1nc(C2CC2)no1)N1CCN2C(=O)NCC2C1 (centres undefined), the “% Inhibition” value was -1% and the Z score was 0.19. For CC(C)c1nc([C@@H]2CCCCCN2C(=O)c2ccccn2)no1, the “% Inhibition” value was -14% and the Z score was 1.2. With O=C(Cc1ccccc1)Nc1ccc(C2OC(=O)N(Cc3ccccc3)C2C(=O)NCc2ccc(F)cc2)cc1 (centres undefined) the “% Inhibition” value was -18% and the Z score was 1.77. In the case of CN(C)C(=O)c1ccnc(NC(=O)c2ccnn2CC2CCC2)c1, the “% Inhibition” value is reported as -8% and the Z score is reported as 1.25. For CCn1ncnc1CN1C[C@@H]2NC(=O)CN(CCOC)C(=O)c3cncc(c3)Oc3cccc(c3)CO[C@H]2C1, the “% Inhibition” value was -26% and the Z score was 3.37. With CCOc1ccc(-c2ccc(OCCNC(=O)c3ccc(S(=O)(=O)N4CCCC4)cc3)nn2)cc1 the “% Inhibition” value was -9% and the Z score was 1.66. For O=S(=O)(CCC(F)(F)F)N[C@H]1CCn2nccc2C1, the “% Inhibition” value was -6% and the Z score was 1. In the case of COc1ccccc1CC(=O)Nc1nncn1C, the “% Inhibition” value is reported as -3% and the Z score is reported as 0.38. For CC[C@H](NC1CCN(Cc2ccco2)CC1)c1cc(C)ccn1, the “% Inhibition” value was -9% and the Z score was 1.94. For CCOc1cccc(CC(=O)NCc2ccc3c(c2)CCN3C(=O)c2ccc(Cl)cc2)c1OCC, the “% Inhibition” value was -12% and the Z score was 2.18. For Cc1c(Cl)cccc1OCC(=O)N1C[C@@H]2CS(=O)(=O)C[C@@H]2C1, the “% Inhibition” value was 7% and the Z score was -1.32. O=C(NCc1ccc2c(c1)CCN2C(=O)c1ccccc1)c1ccc(F)cc1 was tested, and the “% Inhibition” value was -9% and the Z score was 1.67. With Cc1nc(N(C)C2CCCCC2)ncc1[C@H](C)NC(=O)Cn1cnnn1 the “% Inhibition” value was 1% and the Z score was -0.26. In the case of CC(C)C[C@H](C)n1nccc1NC(=O)NCCC(=O)N(C)C, the “% Inhibition” value is reported as -6% and the Z score is reported as 0.51. For CCN(CC)c1ccc(C(=O)N2CCN(c3nc(-c4ccc(Cl)cc4)no3)CC2)cc1, the “% Inhibition” value was -15% and the Z score was 2.06. CC[C@@H](c1nc(Cc2cccc(Cl)c2)nn1CCO)n1cccn1 was tested, and the “% Inhibition” value was -6% and the Z score was 0.99. In the case of C=CCn1c(=O)c2sc(N(CC)CC)nc2n(CC(=O)NCc2ccc3c(c2)OCO3)c1=O, the “% Inhibition” value is reported as -22% and the Z score is reported as 1.96. With Cc1ccc2ncc(-c3noc([C@@H]4CCCN4C4CCCC4)n3)n2c1 the “% Inhibition” value was -8% and the Z score was 1.35. For COc1ccc(CCNCc2c[nH]nc2-c2cccnc2)c(Cl)c1, the “% Inhibition” value was 11% and the Z score was -1.64. For Cc1nn(C)cc1CN1CCC(=O)N(CC2CCCCC2)CC1, the “% Inhibition” value was -4% and the Z score was 0.68. For Cc1cc(C(=O)N(C2CCCCC2)[C@H]2CCS(=O)(=O)C2)ccn1, the “% Inhibition” value was -6% and the Z score was 0.87. In the case of COc1ccc(CNC(=O)CC(F)(F)F)cc1, the “% Inhibition” value is reported as 4% and the Z score is reported as -0.59. With COc1ccc(O)c(C(=O)N2CCCC3(CCN(C)CC3)CC2)c1 the “% Inhibition” value was 3% and the Z score was -0.45. With Cc1cccc(C(=O)N2CCOc3ccc(CN4CCOCC4)cc3C2)c1 the “% Inhibition” value was -3% and the Z score was 0.62.
